Assay results as given in publication PMC4336329 (PLoS ONE, 2015).
Hit rate of the full screen: of about 310,000 compounds, about 14,000 (4.5%) showed an effect of 50% or more. Effects have a minus sign here. Some of the results follow.

target: human ether-à-go-go-related gene (hERG) potassium channel (human, UniProt Q12809); assay: primary screen, population patch clamp on CHO cells stably expressing hERG
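Also: peak tail current of the secondary pulse compared with the same well before compound.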

human ether-à-go-go-related gene (hERG) potassium channel, sequence (Q12809 whole entry, looked up): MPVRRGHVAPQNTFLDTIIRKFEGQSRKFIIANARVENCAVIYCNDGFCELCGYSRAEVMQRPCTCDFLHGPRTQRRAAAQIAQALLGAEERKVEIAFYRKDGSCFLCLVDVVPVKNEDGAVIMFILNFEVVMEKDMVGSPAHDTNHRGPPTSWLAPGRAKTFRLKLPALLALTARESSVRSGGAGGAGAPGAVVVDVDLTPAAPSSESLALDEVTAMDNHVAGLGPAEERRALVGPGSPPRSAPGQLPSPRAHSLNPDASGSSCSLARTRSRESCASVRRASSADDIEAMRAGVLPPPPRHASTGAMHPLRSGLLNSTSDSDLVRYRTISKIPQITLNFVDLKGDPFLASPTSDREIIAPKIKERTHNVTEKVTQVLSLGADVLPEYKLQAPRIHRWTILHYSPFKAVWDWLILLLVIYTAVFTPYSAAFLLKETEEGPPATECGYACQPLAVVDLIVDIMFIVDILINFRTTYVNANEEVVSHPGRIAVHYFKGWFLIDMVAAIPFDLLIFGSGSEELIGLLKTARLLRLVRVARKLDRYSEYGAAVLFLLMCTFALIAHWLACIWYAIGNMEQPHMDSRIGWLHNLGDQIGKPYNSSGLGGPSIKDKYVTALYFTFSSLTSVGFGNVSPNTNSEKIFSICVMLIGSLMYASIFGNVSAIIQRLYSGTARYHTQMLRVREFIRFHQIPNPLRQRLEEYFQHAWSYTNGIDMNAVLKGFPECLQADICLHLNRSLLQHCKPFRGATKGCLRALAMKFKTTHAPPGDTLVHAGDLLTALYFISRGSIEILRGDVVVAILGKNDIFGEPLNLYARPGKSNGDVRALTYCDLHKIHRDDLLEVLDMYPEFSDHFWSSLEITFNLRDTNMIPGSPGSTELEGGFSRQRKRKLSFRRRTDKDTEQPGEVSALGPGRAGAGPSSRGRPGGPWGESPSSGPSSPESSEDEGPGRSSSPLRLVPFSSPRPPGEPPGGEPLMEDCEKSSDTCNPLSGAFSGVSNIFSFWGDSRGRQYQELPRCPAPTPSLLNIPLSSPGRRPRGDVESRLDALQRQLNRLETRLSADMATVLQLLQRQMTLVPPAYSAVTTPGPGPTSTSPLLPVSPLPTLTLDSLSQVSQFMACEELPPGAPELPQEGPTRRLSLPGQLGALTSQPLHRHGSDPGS

SMILES	hERG current change (%, negative = inhibition) at 10uM [%]
COc1ccc(-n2cc(C(=O)Nc3cc([N+](=O)[O-])ccc3OC)c3ccccc3c2=O)cc1	19.3
COc1ccc(NC(=O)CN(C)S(=O)(=O)c2cnc[nH]2)cc1	20.3
COC(=O)c1ccc(CNC(=O)c2c3c(nc4ccccc24)CCN(Cc2ccccc2)C3)cc1	-16.1
CN(C)S(=O)(=O)c1ccc(N2CCCC2)c(C(=O)NNC(=O)COc2ccc(Cl)cc2)c1	-17.7
Cc1cc(C=O)c(C)n1C(C)C	22.6
CC(C(=O)c1ccccc1)n1c(N2CCOCC2)nc2c1c(=O)n(C)c(=O)n2C (centres unmarked)	7.89
Cc1ccc2c(CN3CCN(C(=O)c4ccco4)CC3)cc(=O)oc2c1C	-48.6
CCSc1nnc(NC(=O)c2csc3c2CCC(C)C3)s1 (centres unmarked)	-8.63
CN(CCCN1CCOCC1)C(=O)c1ccc2nc(Cc3cccc(Cl)c3)oc2c1	-6.26
CCc1nnc(NC(=O)C(CC)c2ccccc2)s1 (centres unmarked)	-3.53
O=S(=O)(NC1CC1)c1ccc(S(=O)(=O)N2CCCc3ccccc32)cc1	-12.3
N#Cc1ccc(/C=C\c2nccc3c2[nH]c2ccccc23)cc1	-3.5
Cc1c(N2C(=O)C3C4C=CC(C5CC45)C3C2=O)c(=O)n(-c2ccccc2)n1C (centres unmarked)	3.84
CC(C)c1ccc(N(C(=O)c2cc3ccccc3oc2=O)C2C=CS(=O)(=O)C2)cc1 (centres unmarked)	-4
CN(C(=O)COC(=O)c1cc([N+](=O)[O-])ccc1N1CCCC1)C1CCS(=O)(=O)C1 (centres unmarked)	19.1
N#C/C(=C/c1ccc(C(=O)O)cc1)C(=O)Nc1ccccc1	21.1
CC(/C=N/n1c(-c2ccccn2)n[nH]c1=S)=C\c1ccccc1	-16.7
CCN(CC(=O)Nc1ccc2c(c1)OCCO2)Cc1cc(=O)oc2c(C)c(C)ccc12	-40.3
CC(C)(C)C(=O)Nc1nnc(SCC(=O)NC2CCCCC2)s1	2.34
CC[n+]1c(C)sc2c3ccsc3ccc21.[I-]	6.06
O=[N+]([O-])c1cccc(S(=O)(=O)Nc2ccc(-c3ccc(N4CCCC4)nn3)cc2)c1	13.2
FC(F)(F)c1nnc2ccc(NCn3nnc4ccccc43)nn12	-0.567

SMILES	hERG current change (%, negative = inhibition) at 10uM [%]
CC1CC(C)(C)NC(=S)N1CCCC(=O)NCCc1ccc(Cl)cc1 (centres unmarked)	4.25
CCOC(=O)Cn1c(N)c(C(=O)OC)sc1=S	7.28
O=C(NCCN1CCOCC1)c1ccc(=O)n(Cc2ccc(Cl)cc2)c1	10.2
O=C(CC(c1ccccc1)c1ccccc1)N1CCN(c2ccccn2)CC1	-53.4
Cc1nc2ccccn2c1C(=O)N/N=C/c1cc(C)n(-c2ccc(Cl)cc2)c1C	-13
CCCOc1ccc2c(=O)c(N3C(=O)c4ccccc4C3=O)c(C)oc2c1	-41.3
Br.COc1ccc(CNCc2ccc(F)cc2)c(OC)c1	-79
CC(=O)c1ccc(NC(=O)c2noc3c2CCC3)cc1	2.68
CCCCC(=O)Nc1ccc(C(N)=O)cc1	13.8
O=C(NCc1ccco1)c1cc(=O)c2ccccc2o1	10.9
COc1cccc(NC(=O)c2ccccc2N(Cc2ccccc2)S(C)(=O)=O)c1	-22
CC[N+](CC)(CC#Cc1ccccc1)CC#Cc1ccccc1.[Br-]	-69.8
O=C(Nc1ccon1)c1ccc(N2CCCCC2)c([N+](=O)[O-])c1	15.4
COc1ccc(C(=O)N(C)C2CCCCC2)cc1OC1CCN(C(C)C)CC1	-14.9
O=C(NCCO)/C(=C\c1ccco1)NC(=O)c1cccs1	21.1
Cc1ccc(NC(=O)COC(=O)CN2C(=O)COc3ccccc32)cc1	7.52
COc1cc2c(cc1OC)C1(Nc3c-2c(-c2ccccc2)nn3-c2ccccc2)C(=O)Nc2ccccc21 (centres unmarked)	10.2
O=C(NCc1nc2ccccc2[nH]1)C1=C[C@@H](c2ccc(Br)cc2)C[C@@H](OCc2ccc(CO)cc2)O1	-32.4
COc1ccc(C(CC(=O)O)N2Cc3ccccc3C2=O)cc1OC (centres unmarked)	19.8
Oc1ccccc1OCCOc1ccccc1OCCOc1ccccc1O	0.0544
Cc1ccc(NC2CCCN(C(=O)Cc3nonc3C)C2)cc1C (centres unmarked)	14.5
COc1ccc(NC(=O)CCNS(=O)(=O)c2cccc3nsnc23)cc1	0.074
